# In all, about 310,000 compounds went through this assay and about 14,000 (4.5%) showed an effect of 50% or more. Effects have a minus sign here. The list shows a part of the results.
# Target: human ether-à-go-go-related gene (hERG) potassium channel (human, UniProt Q12809)
# Assay: primary screen, population patch clamp on CHO cells stably expressing hERG
# Method: Briefly, Chinese hamster ovary (CHO) cells stably expressing the hERG channel were dislodged from tissue culture flasks and dispensed into PPC plates. […] During the recording, background leak currents were estimated by a 100 ms step to -80 mV from an initial holding potential of -70 mV and subtracted from the subsequent current measurement. The campaign was conducted in two phases using slight differences in recording protocol. In the first phase, the initial voltage pulse used a 100 ms step to -30 mV from a holding potential of -70 mV, a 2 s conditioning step to +25 mV, and a 2 s test step to -30 mV. During the second phase of the screen, the potential during the conditioning step was raised to +45 mV. In both phases of the campaign, a secondary voltage pulse was applied using the same parameters as the second phase initial pulse. The initial and secondary pulses were applied in the absence of compound, and upon application of 1 μM and 10 μM test concentrations. […]
# 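Further: peak tail current of the secondary pulse compared with the same well before compound.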
# human ether-à-go-go-related gene (hERG) potassium channel, sequence (Q12809 whole entry, looked up): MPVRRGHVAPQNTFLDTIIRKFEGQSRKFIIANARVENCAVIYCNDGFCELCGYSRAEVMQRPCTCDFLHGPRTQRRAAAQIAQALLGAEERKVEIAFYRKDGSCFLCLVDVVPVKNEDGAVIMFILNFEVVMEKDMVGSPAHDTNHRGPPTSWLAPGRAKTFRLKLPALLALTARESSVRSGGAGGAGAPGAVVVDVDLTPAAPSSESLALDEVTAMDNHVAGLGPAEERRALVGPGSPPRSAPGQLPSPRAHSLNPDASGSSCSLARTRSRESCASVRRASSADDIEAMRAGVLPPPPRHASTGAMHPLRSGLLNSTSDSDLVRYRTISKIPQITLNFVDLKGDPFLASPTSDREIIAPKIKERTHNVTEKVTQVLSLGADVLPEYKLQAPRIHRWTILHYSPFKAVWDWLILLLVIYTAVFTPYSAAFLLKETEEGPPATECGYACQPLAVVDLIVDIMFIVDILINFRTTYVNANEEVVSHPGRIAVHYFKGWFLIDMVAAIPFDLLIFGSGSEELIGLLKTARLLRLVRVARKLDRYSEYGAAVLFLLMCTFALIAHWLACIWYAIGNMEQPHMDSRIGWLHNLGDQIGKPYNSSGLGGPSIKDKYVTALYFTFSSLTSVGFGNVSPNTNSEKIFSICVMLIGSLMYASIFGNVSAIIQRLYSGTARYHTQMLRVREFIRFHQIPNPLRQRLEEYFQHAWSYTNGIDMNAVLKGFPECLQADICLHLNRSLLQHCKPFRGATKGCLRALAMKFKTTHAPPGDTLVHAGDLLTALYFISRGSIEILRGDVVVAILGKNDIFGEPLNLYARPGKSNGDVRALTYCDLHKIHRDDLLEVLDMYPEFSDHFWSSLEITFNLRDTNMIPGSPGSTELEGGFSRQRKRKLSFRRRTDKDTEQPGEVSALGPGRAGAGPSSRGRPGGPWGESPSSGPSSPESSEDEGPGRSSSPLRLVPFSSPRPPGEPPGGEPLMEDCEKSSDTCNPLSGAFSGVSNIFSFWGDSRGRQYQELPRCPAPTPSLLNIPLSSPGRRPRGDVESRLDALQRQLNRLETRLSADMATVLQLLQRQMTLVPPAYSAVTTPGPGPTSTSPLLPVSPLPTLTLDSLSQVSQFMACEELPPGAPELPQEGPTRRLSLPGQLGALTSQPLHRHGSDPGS
row,SMILES,"hERG current change (%, negative = inhibition) at 10uM [%]"
1,CCOC(=O)c1c(-c2ccc(C)cc2C)csc1NC(=O)CSc1nnnn1C,-8.6
2,CS(=O)(=O)N1CCN(c2ccc(Cl)cc2[N+](=O)[O-])CC1,-13.4
3,CCSc1nc(N)nc(-c2cccs2)c1C#N,0.736
4,O=C(Nc1nncs1)C(Sc1ccccc1)c1ccccc1 (centres unmarked),-8.99
5,CN(C)CCN(CC1CCCN(Cc2ccccc2F)C1)C(=O)Cc1c(F)cccc1F (centres unmarked),-9.05
6,COC(=O)c1cccnc1-n1c(=O)c2cccnc2n(Cc2ccc([N+](=O)[O-])cc2)c1=O,-30.5
7,O=C(NCc1ccc2c(c1)OCO2)c1cccc(C(=O)NCc2ccc3c(c2)OCO3)c1,2.14
8,Cc1ccc(Cl)cc1-c1ccc(C=Nc2ccc(N3CCOCC3)cc2)o1,5.67
9,CCCCOC(=O)C1=C(C)NC(=O)NC1c1ccccc1 (centres unmarked),6.12
10,O=C(NC1CCCCC1)c1cccs1,2.94
11,CCn1c(C(=O)NCc2cccnc2)cc2sc(Cl)cc21,-57.2
12,CN(C)C=O.COc1ccc(/C=C/c2nc3ccccc3c(=O)n2-c2cccc(C(=O)O)c2)cc1,4.31
13,COc1ccc(C(=O)N2C(=S)NC(=O)/C2=C\c2ccc(C)cc2)cc1,-2.42
14,O=C(N/N=C/c1ccc[nH]1)c1sc2ccccc2c1Cl,-17.9
15,NC(=O)C1CCN(c2nnnn2-c2ccccc2)CC1,11.4
16,COc1cccc(-n2nnc3c(=O)n(CC(=O)N4CCC(Cc5ccccc5)CC4)cnc32)c1,9.22
17,CC1CCN(CCCCOc2ccccc2Br)CC1,-48.9
18,O=C(COc1ccc(/C=N/NC(=O)c2cc3ccccc3o2)cc1Br)Nc1ccccc1,19.3
19,COc1ccc(-c2csc(N(C)C(=O)c3ccco3)n2)cc1,10.8
20,C/C(N)=C(/C#N)C(=O)CSc1nc2ccccc2c(=O)n1-c1ccc(C)c(Cl)c1,4.29
21,CC(C)NC(=O)Cn1c(SCC(=O)N2c3ccccc3CC2C)nc2ccccc21 (centres unmarked),3.85
22,COc1ccc(C2(c3ccc(OC)cc3)NC(=O)N(CC(=O)Nc3ccc(OC)c(OC)c3)C2=O)cc1,-2.49

row,SMILES,"hERG current change (%, negative = inhibition) at 10uM [%]"
1,O=c1c2ccccc2nc(/C=C/c2ccccc2F)n1-c1ccccc1O,18.6
2,COc1ccc(-c2cc(C(=O)Nc3c(C)n(C)n(-c4ccccc4)c3=O)c3ccccc3n2)cc1OC,28.8
3,Cc1nc(N(C)C)ncc1C(=O)O,6.75
4,COc1ccc(NC(=O)Nc2nnc(C(C)C)s2)cc1,-4.08
5,CCCn1nc2cc(C(=O)NCc3ccccc3OC)ccc2c1OCC,7.72
6,CCOc1cc(/C=C2/NC(=O)N(CC(=O)Nc3cccc(C)c3)C2=O)ccc1O,2.36
7,CCOC(=O)Cc1csc(NC(=O)c2ccc(C)cc2)n1,-9.73
8,CC1(C)CC(=O)C=C(c2ccc(OC(F)(F)F)cc2)C1,-34.3
9,Cc1c(C(C)CCCO)oc(=O)c2c1Oc1c(C)c(C(C)C[C@@H](C)O)oc(=O)c1C2 (some centres unmarked),4.92
10,Cc1ccc(C(=O)NC2CCCCCC2)o1,-14.2
11,COc1ccc(-n2c(Cc3cccn3C)nnc2SCC(=O)N2CCCC2)cc1,-9.54
12,CC(C)CNc1nc(S(=O)(=O)c2ccccc2)c(Cl)s1,-11.5
13,COc1cccc(CNC(=O)c2ccc(NS(=O)(=O)c3ccc4[nH]c(=O)[nH]c4c3)cc2)c1,21.4
14,CCN(CC)C(=O)COc1ccc(CC(=O)O)cc1OC,22.3
15,CN1CCCN(C(=O)COc2ccc(F)cc2Cl)CC1,-12.5
16,Cc1ccc(O)c(NC(=S)NC(=O)c2ccc(-c3ccc(Cl)cc3)o2)c1,15.8
17,CCOC(=O)c1c(NC(=S)Nc2ccc(F)cc2)sc2c1CCC2,-6.44
18,CC(=O)Nc1ccc(S(=O)(=O)NC2CC2)cc1,9.08
19,COC(=O)c1ccc(NC(=O)CN2CCN(c3ccccc3C)CC2)cc1,-10.6
20,COc1cccc(CNc2ncnc3ccc(-c4c(C)noc4C)cc23)c1,-45.9
21,CCNC(=O)CC1C(=O)N(c2ccc(F)cc2)C(=O)N1CCC(C)C (centres unmarked),-3.7
22,Cc1ccc(C)c(OCCC(=O)NNC(=O)c2ccccc2F)c1,-8.61

# — PMC4336329 (PLoS ONE, 2015)
